Measured values: the supplement of paper PMC8728848
This is one part of the list.

Tests used:
Assay in all cases: glycan array binding signal (z-score within array); higher = stronger binding
Conditions in all cases: glycan notation: IUPAC condensed, linker removed
[1] = biological target: GalNAc(b1-4)GlcNAc(b1-2)Man
Summary of the method: (§1)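 From the Consortium for Functional Glycomics database, 3228 arrays were curated, keeping only those whose protein sequence was available. Binding is given as a within-array Z-score averaged across arrays sharing a protein sequence and across linkers. Negative Z-scores can be read as non-binding.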

[2] = biological target: GalNAc(b1-4)GlcNAc(b1-2)Man(a1-3)[GalNAc(b1-4)GlcNAc(b1-2)Man(a1-6)]Man(b1-4)GlcNAc(b1-4)GlcNAc
Summary of the method: as §1

[3] = biological target: GalNAc(b1-4)GlcNAc(b1-3)GalNAc(b1-4)GlcNAc
Summary of the method: as §1

GalNAc(b1-4)GlcNAc6S = biological target: GalNAc(b1-4)GlcNAc6S
Summary of the method: as §1

GalNAc(b1-6)GalNAc = biological target: GalNAc(b1-6)GalNAc
Summary of the method: as §1

GalNAc3S(b1-4)GlcNAc = biological target: GalNAc3S(b1-4)GlcNAc
Summary of the method: as §1

GalNAc3S(b1-4)GlcNAc3S = biological target: GalNAc3S(b1-4)GlcNAc3S
Summary of the method: as §1

[4] = biological target: GalNAc3S(b1-4)[Fuc(a1-3)]GlcNAc
Summary of the method: as §1

GalNAc4S6S(b1-4)GlcNAc = biological target: GalNAc4S6S(b1-4)GlcNAc
Summary of the method: as §1

GalNAc6S(b1-4)GlcNAc = biological target: GalNAc6S(b1-4)GlcNAc
Summary of the method: as §1

Glc(a1-4)Glc = biological target: Glc(a1-4)Glc
Summary of the method: as §1

[5] = biological target: Glc(a1-4)Glc(a1-4)Glc(a1-4)Glc
Summary of the method: as §1

Glc(a1-6)Glc(a1-6)Glc = biological target: Glc(a1-6)Glc(a1-6)Glc
Summary of the method: as §1

[6] = biological target: Glc(a1-6)Glc(a1-6)Glc(a1-6)Glc
Summary of the method: as §1

Glc(b1-4)Glc = biological target: Glc(b1-4)Glc
Summary of the method: as §1

Glc(b1-6)Glc = biological target: Glc(b1-6)Glc
Summary of the method: as §1

GlcA(b1-3)Gal = biological target: GlcA(b1-3)Gal
Summary of the method: as §1

GlcA(b1-3)GlcNAc = biological target: GlcA(b1-3)GlcNAc
Summary of the method: as §1

GlcA(b1-6)Gal = biological target: GlcA(b1-6)Gal
Summary of the method: as §1

[7] = biological target: GlcA3S(b1-3)Gal(b1-4)GlcNAc(b1-2)Man
Summary of the method: as §1

[8] = biological target: GlcA3S(b1-3)Gal(b1-4)GlcNAc(b1-3)Gal(b1-4)Glc
Summary of the method: as §1

[9] = biological target: GlcNAc(a1-3)Gal(b1-4)GlcNAc
Summary of the method: as §1

[10] = biological target: GlcNAc(a1-4)Gal(b1-3)GlcNAc
Summary of the method: as §1

[11] = biological target: GlcNAc(a1-4)Gal(b1-4)GalNAc
Summary of the method: as §1

[12] = biological target: GlcNAc(a1-4)Gal(b1-4)GlcNAc
Summary of the method: as §1

[13] = biological target: GlcNAc(a1-4)Gal(b1-4)GlcNAc(b1-3)Gal(b1-4)Glc
Summary of the method: as §1

[14] = biological target: GlcNAc(a1-4)Gal(b1-4)GlcNAc(b1-3)Gal(b1-4)GlcNAc
Summary of the method: as §1

[15] = biological target: GlcNAc(a1-4)Gal(b1-4)GlcNAc(b1-3)Gal(b1-4)GlcNAc(b1-3)Gal(b1-4)GlcNAc
Summary of the method: as §1

[16] = biological target: GlcNAc(a1-4)Gal(b1-4)GlcNAc(b1-3)Gal(b1-4)[Fuc(a1-3)]GlcNAc(b1-3)Gal(b1-4)[Fuc(a1-3)]GlcNAc
Summary of the method: as §1

[17] = biological target: GlcNAc(a1-6)Gal(b1-4)GlcNAc
Summary of the method: as §1

[18] = biological target: GlcNAc(b1-2)Gal(b1-3)GalNAc
Summary of the method: as §1

[19] = biological target: GlcNAc(b1-2)Man(a1-3)[GlcNAc(b1-2)Man(a1-6)]Man(b1-4)GlcNAc(b1-4)GlcNAc
Summary of the method: as §1

[20] = biological target: GlcNAc(b1-2)Man(a1-3)[GlcNAc(b1-2)Man(a1-6)]Man(b1-4)GlcNAc(b1-4)[Fuc(a1-6)]GlcNAc
Summary of the method: as §1

[21] = biological target: GlcNAc(b1-2)Man(a1-3)[GlcNAc(b1-4)][GlcNAc(b1-2)Man(a1-6)]Man(b1-4)GlcNAc(b1-4)GlcNAc
Summary of the method: as §1

[22] = biological target: GlcNAc(b1-2)Man(a1-3)[GlcNAc(b1-4)][GlcNAc(b1-2)Man(a1-6)]Man(b1-4)GlcNAc(b1-4)[Fuc(a1-6)]GlcNAc
Summary of the method: as §1

[23] = biological target: GlcNAc(b1-2)[GlcNAc(b1-4)]Man(a1-3)[GlcNAc(b1-2)Man(a1-6)]Man(b1-4)GlcNAc(b1-4)GlcNAc
Summary of the method: as §1

[24] = biological target: GlcNAc(b1-2)[GlcNAc(b1-4)]Man(a1-3)[GlcNAc(b1-4)][GlcNAc(b1-2)Man(a1-6)]Man(b1-4)GlcNAc(b1-4)GlcNAc
Summary of the method: as §1

[25] = biological target: GlcNAc(b1-2)[GlcNAc(b1-4)]Man(a1-3)[GlcNAc(b1-4)][GlcNAc(b1-2)[GlcNAc(b1-6)]Man(a1-6)]Man(b1-4)GlcNAc(b1-4)GlcNAc
Summary of the method: as §1

[26] = biological target: GlcNAc(b1-2)[GlcNAc(b1-4)]Man(a1-3)[GlcNAc(b1-4)][GlcNAc(b1-2)[GlcNAc(b1-6)]Man(a1-6)]Man(b1-4)GlcNAc(b1-4)[Fuc(a1-6)]GlcNAc
Summary of the method: as §1

[27] = biological target: GlcNAc(b1-2)[GlcNAc(b1-6)]Man(a1-6)[GlcNAc(b1-2)Man(a1-3)]Man(b1-4)GlcNAc(b1-4)GlcNAc
Summary of the method: as §1

[28] = biological target: GlcNAc(b1-2)[GlcNAc(b1-6)]Man(a1-6)[GlcNAc(b1-2)Man(a1-3)]Man(b1-4)GlcNAc(b1-4)[Fuc(a1-6)]GlcNAc
Summary of the method: as §1

[29] = biological target: GlcNAc(b1-2)[GlcNAc(b1-6)]Man(a1-6)[GlcNAc(b1-4)][GlcNAc(b1-2)Man(a1-3)]Man(b1-4)GlcNAc(b1-4)GlcNAc
Summary of the method: as §1

GlcNAc(b1-3)Fuc = biological target: GlcNAc(b1-3)Fuc
Summary of the method: as §1

GlcNAc(b1-3)Gal = biological target: GlcNAc(b1-3)Gal
Summary of the method: as §1

[30] = biological target: GlcNAc(b1-3)Gal(b1-3)GalNAc
Summary of the method: as §1

B1: AT1G15820(NC) (Arabidopsis thaliana) (protein)
chain: MAMAVSGAVLSGLGSSFLTGGKRGATALASGVGDAIAPFSFGSLLGTQLLLMGWVESKRWVDFFNPDSQSVEWATPWSKTAENFANYTGDQGYPGGRFFDPLGLAGKNRDGVYEPDFEKLERLKLAEIKHSRLAMVAMLIFYFEAGQGKTPLGALGL
glycan array binding signal (z-score) [1]: -0.306
glycan array binding signal (z-score) [2]: 1.2
glycan array binding signal (z-score) [3]: -0.212
glycan array binding signal (z-score) (GalNAc(b1-4)GlcNAc6S): -0.282
glycan array binding signal (z-score) (GalNAc(b1-6)GalNAc): -0.289
glycan array binding signal (z-score) (GalNAc3S(b1-4)GlcNAc): -0.485
glycan array binding signal (z-score) (GalNAc3S(b1-4)GlcNAc3S): -0.678
glycan array binding signal (z-score) [4]: -0.394
glycan array binding signal (z-score) (GalNAc4S6S(b1-4)GlcNAc): -0.427
glycan array binding signal (z-score) (GalNAc6S(b1-4)GlcNAc): 0.156
glycan array binding signal (z-score) (Glc(a1-4)Glc): 0.253
glycan array binding signal (z-score) [5]: -0.314
glycan array binding signal (z-score) (Glc(a1-6)Glc(a1-6)Glc): -0.276
glycan array binding signal (z-score) [6]: -0.393
glycan array binding signal (z-score) (Glc(b1-4)Glc): 2
glycan array binding signal (z-score) (Glc(b1-6)Glc): -0.183
glycan array binding signal (z-score) (GlcA(b1-3)Gal): -0.102
glycan array binding signal (z-score) (GlcA(b1-3)GlcNAc): 0.028
glycan array binding signal (z-score) (GlcA(b1-6)Gal): -0.509
glycan array binding signal (z-score) [7]: -0.63
glycan array binding signal (z-score) [8]: -0.568
glycan array binding signal (z-score) [9]: 0.391
glycan array binding signal (z-score) [10]: -0.143
glycan array binding signal (z-score) [11]: -0.41
glycan array binding signal (z-score) [12]: -0.328
glycan array binding signal (z-score) [13]: -0.564
glycan array binding signal (z-score) [14]: -0.177
glycan array binding signal (z-score) [15]: -0.156
glycan array binding signal (z-score) [16]: -0.106
glycan array binding signal (z-score) [17]: -0.626
glycan array binding signal (z-score) [18]: 0.572
glycan array binding signal (z-score) [19]: -0.455
glycan array binding signal (z-score) [20]: -0.44
glycan array binding signal (z-score) [21]: -0.527
glycan array binding signal (z-score) [22]: -0.535
glycan array binding signal (z-score) [23]: -0.544
glycan array binding signal (z-score) [24]: -0.219
glycan array binding signal (z-score) [25]: -0.358
glycan array binding signal (z-score) [26]: -0.424
glycan array binding signal (z-score) [27]: -0.221
glycan array binding signal (z-score) [28]: -0.03
glycan array binding signal (z-score) [29]: -0.747
glycan array binding signal (z-score) (GlcNAc(b1-3)Fuc): -0.262
glycan array binding signal (z-score) (GlcNAc(b1-3)Gal): -0.534
glycan array binding signal (z-score) [30]: -0.201
